# Measured values: the BET-seq Pho4 binding data (Le et al. 2018)
# This is one part of the list. Values were computed here from the reads of four pooled replicates and scatter widely.
# Target: T1, Pho4 (S. cerevisiae) (UniProt P07270)
# T1 sequence: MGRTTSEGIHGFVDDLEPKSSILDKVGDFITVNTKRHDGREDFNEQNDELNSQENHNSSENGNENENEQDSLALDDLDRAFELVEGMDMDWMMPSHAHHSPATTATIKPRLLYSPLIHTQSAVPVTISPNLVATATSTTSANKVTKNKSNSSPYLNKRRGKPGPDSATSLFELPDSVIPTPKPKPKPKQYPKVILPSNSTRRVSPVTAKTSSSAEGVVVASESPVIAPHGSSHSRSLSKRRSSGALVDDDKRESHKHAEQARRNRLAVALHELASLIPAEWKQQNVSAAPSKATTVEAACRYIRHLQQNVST
# Assay: relative binding free energy (BET-seq); higher = weaker binding
# Conditions: reference: library average
row,Sequence,relative binding free energy
1,TTGAACACGTGGGGCT,-0.02 kcal/mol
2,GGTAGCACGTGCGTCG,-0.1 kcal/mol
3,TCGGTCACGTGAAGTG,0.24 kcal/mol
4,TTGGGCACGTGCGGTA,-0.06 kcal/mol
5,TGTGCCACGTGGGGAG,-0.06 kcal/mol
6,GGGGGCACGTGGCCGG,-0.2 kcal/mol
7,CGTGTCACGTGCATGG,0.01 kcal/mol
8,ATAAGCACGTGGTATT,-0.34 kcal/mol
9,TGATGCACGTGGTGCT,-0.13 kcal/mol
10,TTTTACACGTGGCGCT,0.08 kcal/mol
11,TCCTGCACGTGTTATG,0.05 kcal/mol
12,GGTTTCACGTGGACTA,0.24 kcal/mol
13,TGGAACACGTGAAGGA,0.35 kcal/mol
14,AGGTTCACGTGAAAAT,0.46 kcal/mol
15,GCTTACACGTGGCGGT,0.26 kcal/mol
16,TTGAGCACGTGGTACG,-0.22 kcal/mol
17,AGGGTCACGTGTTCGA,-0.03 kcal/mol
18,GTAAACACGTGGGTGG,-0.07 kcal/mol
19,GGGGTCACGTGATCGA,0.23 kcal/mol
20,AGGCTCACGTGATGAG,0.26 kcal/mol
21,TTCAGCACGTGAAAGT,0.27 kcal/mol
22,TGAGTCACGTGGGTTC,-0.08 kcal/mol
23,TGTAGCACGTGTAGGT,-0.1 kcal/mol
24,GTGAGCACGTGCTTTT,-0.07 kcal/mol
25,AATGTCACGTGAAATG,0.42 kcal/mol
26,GCGGGCACGTGAGTAT,0.05 kcal/mol

row,Sequence,relative binding free energy
1,ATGAGCACGTGGGGCA,-0.38 kcal/mol
2,TGAAGCACGTGGAGAT,-0.02 kcal/mol
3,AGTCGCACGTGTTTTA,0 kcal/mol
4,CTGAGCACGTGATTGG,0.04 kcal/mol
5,GTGTTCACGTGATCGT,0.3 kcal/mol
6,TGTGACACGTGTGAAG,0 kcal/mol
7,GTTAGCACGTGTAATA,0.26 kcal/mol
8,TGGGTCACGTGGCATG,0.04 kcal/mol
9,AGTGGCACGTGTCCGT,-0.1 kcal/mol
10,AAGGTCACGTGGCTTA,0.02 kcal/mol
11,CAGGACACGTGAGGGT,0.2 kcal/mol
12,AGTATCACGTGTAGTT,0.17 kcal/mol
13,CGTTACACGTGGGCTG,-0.14 kcal/mol
14,CATGTCACGTGTATGT,-0.06 kcal/mol
15,GTTGTCACGTGTCATT,0.1 kcal/mol
16,CAAGACACGTGGTGTG,-0.09 kcal/mol
17,GTATGCACGTGGGATA,-0.07 kcal/mol
18,AGTTACACGTGGTCTG,-0.15 kcal/mol
19,TGGGACACGTGTGGGA,0.14 kcal/mol
20,AATTGCACGTGCGCGG,-0.08 kcal/mol
21,TTTGTCACGTGGTGGG,0.09 kcal/mol
22,AAAAGCACGTGTTTGT,-0.09 kcal/mol
23,GCAGTCACGTGGGGGG,-0.01 kcal/mol
24,GGTAACACGTGGTGCA,0.01 kcal/mol
25,CCTGGCACGTGGGGAT,-0.2 kcal/mol
26,AGTTTCACGTGCTTGG,0.22 kcal/mol

row,Sequence,relative binding free energy
1,TTCGGCACGTGGATAT,0.02 kcal/mol
2,ACTGTCACGTGGGTTC,0.03 kcal/mol
3,TTTTTCACGTGATTAA,0.36 kcal/mol
4,ATGTTCACGTGCTTTT,0.13 kcal/mol
5,TCATACACGTGTGGTT,0.07 kcal/mol
6,TTCGTCACGTGAGCTT,0.42 kcal/mol
7,GAGTGCACGTGGGGGT,-0.12 kcal/mol
8,AAGGACACGTGGGCGG,-0.18 kcal/mol
9,GTGGTCACGTGAATTA,0.43 kcal/mol
10,TGAACCACGTGAGTGT,0.14 kcal/mol
11,TTAATCACGTGGCAGG,0.08 kcal/mol
12,TAAGTCACGTGCGGGG,0.19 kcal/mol
13,TTAGTCACGTGCGGAT,0.05 kcal/mol
14,GTCAGCACGTGTGTGT,-0.04 kcal/mol
15,GGAGTCACGTGGTTCT,0.13 kcal/mol
16,GTTGGCACGTGATGCG,-0.13 kcal/mol
17,AACTGCACGTGTGGGC,0.18 kcal/mol
18,GTAGACACGTGGTTGC,-0.02 kcal/mol
19,GTTTTCACGTGGAAGA,0.4 kcal/mol
20,TTCCGCACGTGAGTGG,0.09 kcal/mol
21,TGTAGCACGTGGGGCA,-0.25 kcal/mol
22,AAAGGCACGTGCTGTA,-0.05 kcal/mol
23,TTCAACACGTGTGTGT,0.04 kcal/mol
24,TTGTTCACGTGTATCT,0.19 kcal/mol
25,TAGTACACGTGAGTGT,0.21 kcal/mol
26,CGTATCACGTGGCGTG,0.1 kcal/mol

row,Sequence,relative binding free energy
1,ATATACACGTGTGCGT,-0.08 kcal/mol
2,TTTGGCACGTGTGGAC,0.04 kcal/mol
3,GATGGCACGTGGATGG,0.03 kcal/mol
4,CTGGGCACGTGGGCAT,-0.2 kcal/mol
5,AGGTGCACGTGGGACC,-0.04 kcal/mol
6,GTCAGCACGTGAGTTA,0.16 kcal/mol
7,TGCTTCACGTGGGGTC,0.13 kcal/mol
8,GAGAGCACGTGAGTTT,0.14 kcal/mol
9,AGTTGCACGTGGCGAG,-0.11 kcal/mol
10,TGCTGCACGTGGTTCT,-0.09 kcal/mol
11,GTGCGCACGTGGTCTA,-0.01 kcal/mol
12,AGTGCCACGTGAGGAG,0.14 kcal/mol
13,CGTGCCACGTGTTTGT,0 kcal/mol
14,TTAAGCACGTGGTAAG,-0.13 kcal/mol
15,GGTGTCACGTGTCTAG,0.19 kcal/mol
16,TGCGACACGTGTGTAT,-0.01 kcal/mol
17,GGATACACGTGTTAGG,0.02 kcal/mol
18,TGGGTCACGTGGTCAA,0.02 kcal/mol
19,GGTGGCACGTGAATGA,0.19 kcal/mol
20,TGGGCCACGTGGTTTC,0.04 kcal/mol
21,GGATACACGTGTTTGG,0.18 kcal/mol
22,ATTGTCACGTGAAGTA,0.33 kcal/mol
23,TTGGTCACGTGTGATG,0.19 kcal/mol
24,TAATTCACGTGGTTCG,0.21 kcal/mol
25,CAAGTCACGTGTGGCG,0.19 kcal/mol
26,TTCGTCACGTGCGGGA,-0.01 kcal/mol

row,Sequence,relative binding free energy
1,GTGTGCACGTGACTTT,0.25 kcal/mol
2,ACGAGCACGTGGGTGA,-0.21 kcal/mol
3,GGGTGCACGTGGTCGG,-0.03 kcal/mol
4,GTTTTCACGTGTAGGC,0.37 kcal/mol
5,GGTTTCACGTGTAGTT,0.33 kcal/mol
6,AGGCTCACGTGGATGC,0.33 kcal/mol
7,GGTTGCACGTGTATGC,0.07 kcal/mol
8,GTGCTCACGTGTTTAG,0.16 kcal/mol
9,GTGTGCACGTGCTGGA,-0.05 kcal/mol
10,TTTTTCACGTGCCTTT,0.02 kcal/mol
11,ATTTCCACGTGTTTCT,0.16 kcal/mol
12,AGGGGCACGTGTGTCT,-0.04 kcal/mol
13,TGCGTCACGTGATATA,0.22 kcal/mol
14,TTTGTCACGTGACCTG,0.19 kcal/mol
15,TTCTTCACGTGGGGAG,0.21 kcal/mol
16,TCGGCCACGTGGGTGT,-0.21 kcal/mol
17,TTATACACGTGGGTCG,-0.18 kcal/mol
18,TTGTTCACGTGCCGGC,0.34 kcal/mol
19,CGTTTCACGTGTTCGG,0.23 kcal/mol
20,AGTCGCACGTGAGGCT,0.12 kcal/mol
21,AGTGTCACGTGCAATG,0.03 kcal/mol
22,TGTGTCACGTGTAACA,0.12 kcal/mol
23,ATGGCCACGTGGGGCG,-0.33 kcal/mol
24,TATTTCACGTGCGGTG,0.14 kcal/mol
25,ACATTCACGTGTGGGC,0.42 kcal/mol
26,GTAGTCACGTGCAGGT,0.14 kcal/mol

row,Sequence,relative binding free energy
1,TGTAGCACGTGTGGTC,-0.07 kcal/mol
2,TTCGGCACGTGTTTTT,-0.03 kcal/mol
3,GATGTCACGTGGATTG,0.3 kcal/mol
4,GGTGGCACGTGGGTTG,-0.05 kcal/mol
5,CTAATCACGTGTTAGG,0.17 kcal/mol
6,TAGGGCACGTGTCATT,-0.1 kcal/mol
7,CTAGTCACGTGATGGT,0.09 kcal/mol
8,AGTTGCACGTGTGGGC,0.08 kcal/mol
9,AACTGCACGTGGTGCG,-0.01 kcal/mol
10,AGTTTCACGTGAAAGC,0.48 kcal/mol
11,ATGTGCACGTGATACG,0 kcal/mol
12,AAGGTCACGTGTATAA,0.05 kcal/mol
13,GGAGCCACGTGAGTGG,0.15 kcal/mol
14,TAATCCACGTGTGGGG,-0.09 kcal/mol
15,GTGGCCACGTGAGGGT,0.15 kcal/mol
16,GTGGCCACGTGGTCGT,-0.09 kcal/mol
17,AGTGTCACGTGAAGGG,0.36 kcal/mol
18,TGGCTCACGTGGATAG,0.09 kcal/mol
19,AGATGCACGTGGCTGT,-0.24 kcal/mol
20,TTTAACACGTGCGTAG,-0.02 kcal/mol
21,GGTGGCACGTGGGCGC,-0.14 kcal/mol
22,AATTGCACGTGTTAGC,0.01 kcal/mol
23,AGTGTCACGTGTATTG,0.02 kcal/mol
24,GAGTGCACGTGTAGTA,0.2 kcal/mol
25,AGGGGCACGTGGTTAG,-0.11 kcal/mol
26,CGTTACACGTGAGTGT,0.17 kcal/mol

row,Sequence,relative binding free energy
1,CTTGGCACGTGTGTGC,-0.05 kcal/mol
2,TTTTGCACGTGGGCCT,-0.28 kcal/mol
3,CGCTGCACGTGGTTTG,-0.05 kcal/mol
4,CTTTGCACGTGTGGAA,0.03 kcal/mol
5,AATATCACGTGCTGGT,0.12 kcal/mol
6,GGCTACACGTGGGGAG,0.04 kcal/mol
7,AGGGACACGTGGGTAC,-0.23 kcal/mol
8,GGGAGCACGTGACAGG,0 kcal/mol
9,ATGTTCACGTGAGAGT,0.35 kcal/mol
10,GGGGGCACGTGTACAG,-0.09 kcal/mol
11,TTTAGCACGTGGGCGA,-0.32 kcal/mol
12,TTGTTCACGTGACCGG,0.43 kcal/mol
13,GGTTTCACGTGTCGAT,0.26 kcal/mol
14,GTGTACACGTGCGTCT,0.03 kcal/mol
15,GGGAGCACGTGAAGGT,0.25 kcal/mol
16,TATGTCACGTGGCGAG,-0.14 kcal/mol
17,GGCAGCACGTGTTAGT,0.07 kcal/mol
18,GGCGCCACGTGTAGGG,-0.08 kcal/mol
19,TACTTCACGTGGATGT,0.41 kcal/mol
20,TTTAGCACGTGGTCCG,-0.12 kcal/mol
21,GTCTTCACGTGGGTAA,0.25 kcal/mol
22,CTGGGCACGTGCTGGA,-0.11 kcal/mol
23,TACGGCACGTGTTATT,-0.07 kcal/mol
24,TTCTGCACGTGTGAGG,0.07 kcal/mol
25,ACAGTCACGTGTTAGT,-0.04 kcal/mol
26,AGTTGCACGTGGGGAC,-0.06 kcal/mol

row,Sequence,relative binding free energy
1,AGTCGCACGTGGGTCG,-0.2 kcal/mol
2,AGTGTCACGTGGCGTA,-0.1 kcal/mol
3,TAAGTCACGTGCGTAT,0.05 kcal/mol
4,TGGGCCACGTGGAATT,0.12 kcal/mol
5,CTCTTCACGTGTGAGT,0.31 kcal/mol
6,TGTATCACGTGGCGCG,0.1 kcal/mol
7,TGCTTCACGTGTCTGT,0.15 kcal/mol
8,GCTTGCACGTGGGTTA,-0.21 kcal/mol
9,CGTTTCACGTGAATGA,0.39 kcal/mol
10,TTAGTCACGTGGTTCT,-0.08 kcal/mol
11,TTTGGCACGTGGATCG,-0.11 kcal/mol
12,TGGCACACGTGGGTAG,-0.08 kcal/mol
13,GAGGTCACGTGGAGGC,0.03 kcal/mol
14,TTTAGCACGTGCTAGG,-0.16 kcal/mol
15,TCTTTCACGTGAAGTG,0.31 kcal/mol
16,GTGTGCACGTGAAGCT,0.08 kcal/mol
17,ATAAGCACGTGGTAAA,-0.08 kcal/mol
18,TGGCTCACGTGGGTAG,0.11 kcal/mol
19,TATGACACGTGATGTC,0.19 kcal/mol
20,TCGTCCACGTGTGGGG,-0.03 kcal/mol
21,AGTTGCACGTGGGCTC,-0.1 kcal/mol
22,TTTGACACGTGGCGCA,0.01 kcal/mol
23,TGAAGCACGTGGTTGC,-0.17 kcal/mol
24,CATCTCACGTGGGGTG,0.04 kcal/mol
25,TTGGGCACGTGGTGTT,-0.07 kcal/mol
26,GCGGGCACGTGGGGCA,-0.2 kcal/mol

row,Sequence,relative binding free energy
1,GCGGGCACGTGTTAAG,0 kcal/mol
2,AATGTCACGTGGAAAG,0.17 kcal/mol
3,TTCTTCACGTGGTAGT,0.25 kcal/mol
4,GATTTCACGTGAGGTC,0.53 kcal/mol
5,TTTCGCACGTGGTGGG,-0.13 kcal/mol
6,AGGATCACGTGTAGTT,0.1 kcal/mol
7,AGTTACACGTGTTAGG,0.06 kcal/mol
8,AGTTACACGTGGGTTC,-0.06 kcal/mol
9,TTCAGCACGTGTAGGG,-0.03 kcal/mol
10,TTTAGCACGTGAAGGG,0.33 kcal/mol
11,AGGAGCACGTGGCGCG,-0.19 kcal/mol
12,TAGGTCACGTGGGAAG,-0.01 kcal/mol
13,AGGAGCACGTGATTGG,0.13 kcal/mol
14,TATATCACGTGCTTTT,0.04 kcal/mol
15,TAGGTCACGTGGGAGT,0.06 kcal/mol
16,AGGTGCACGTGGTTGT,-0.07 kcal/mol
17,TGTACCACGTGTAAGG,0.04 kcal/mol
18,TGCGTCACGTGCAGGT,0 kcal/mol
19,TGAAGCACGTGGTGAG,-0.15 kcal/mol
20,GGGGGCACGTGGTACG,-0.26 kcal/mol
21,TGACGCACGTGGTGGC,-0.11 kcal/mol
22,ACGTTCACGTGTGGGA,0.37 kcal/mol
